# Assay results published in PubChem BioAssay AID686978 (National Center for Advancing Translational Sciences (NCATS), 2013).
# Screen size: about 420,000 compounds; about 64,000 (15%) were called active. The inconclusive results got no clear call from the source; some entries with a clear call stand among them for comparison. Calls come from the whole dose curve; as a rule, active = well fitted inhibition curve with a large enough effect; inconclusive = small, poorly fitted or top-dose-only effect; inactive = flat fitted curve, though single readings scatter. Potencies of inconclusive entries are left out as doubtful fits.
# Test: qHTS for Inhibitors of human tyrosyl-DNA phosphodiesterase 1 (TDP1): qHTS in cells in absence of CPT; note: nearly all actives have a fitted effect of over 55% in size
# Settings: DT40 Tdp1-/- hTDP1 cells, no CPT, ATP luminescence, 48 h; activity change, negative = growth inhibition: at 46.2 µM (top of the series) unless noted
# Method in brief: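 No-CPT arm: Tdp1-/-;hTDP1 DT40 cells (400/well) plus compounds, incubated ≥48 hr at 37 °C. Readout CellTiter-Glo luminescence.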
# % is set by controls: 0 for no effect and ±100 for the full control effect; potency is the fitted concentration of half-maximal effect; tags give direction and shape of the fitted curve.
Compound,Potency,"activity change, negative = growth inhibition"
CC(=O)C(=Cc1ccc(Cl)cc1)C(=O)c1ccccc1,active: 18.4 µM,
COc1ccc(OC)c(Nc2ncnc3c2cnn3-c2ccc(C)cc2)c1,"inconclusive [inhibitor, single point]",
O=C(CCCn1c(=O)[nH]c2ccsc2c1=O)N1CCCCC1,inactive,
COc1cccc(CN2C(=O)c3ccccc3C2C(=O)NCC2CCCO2)c1 (stereo unspecified),inactive,
Cc1ccc(S(=O)(=O)NCCC(=O)NC(C)CCc2ccccc2)cc1 (stereo unspecified),"inconclusive [inhibitor, single point]",
CC1CCCN(C(=O)CN(C)S(=O)(=O)c2cccc3nsnc23)C1 (stereo unspecified),inactive,
NS(=O)(=O)c1ccc(NC(=O)C(=O)NCCC(=O)O)cc1,inactive,
CCOc1ccc(CC(=O)NC2CC(=O)N(c3ccc(C)c(C)c3)C2)cc1 (stereo unspecified),"inconclusive [inhibitor, single point]",
COc1ccccc1N(CC(=O)Nc1ccc(C)c(Cl)c1)S(=O)(=O)c1ccc(C)cc1,active: 18.4 µM,
Cc1onc(-c2ccccc2)c1-c1nnc(-c2ccccc2C(F)(F)F)o1,"inconclusive [inhibitor, single point]",
COc1ccc(-c2noc(CCC(=O)Nc3cccnc3)n2)cc1,"inconclusive [inhibitor, partial curve]",
Cc1ccc(NS(=O)(=O)c2c(C)nc3sccn3c2=O)cc1C,"inconclusive [inhibitor, single point]",
Cc1ccc(/C=C/C(=O)N2CCCC(C)C2)cc1 (stereo unspecified),,inconclusive: -30.8% [inhibitor]
CC(=O)Nc1ccc(NC(=O)C2CC(=O)N(C(C)C)C2)cc1 (stereo unspecified),inactive,
CNC(=S)/N=C/NOCc1ccc(Cl)cc1Cl,active: 20.6 µM,
CCN1C(=O)c2cccc3c(N)ccc1c23,"inconclusive [inhibitor, single point]",
c1ccc2c(Nc3nc(-c4ccncc4)nc4ccccc34)cccc2c1,"inconclusive [inhibitor, single point]",
CC(=O)N1c2ccccc2C(=O)C1N1CCN(c2cccc(C(F)(F)F)c2)CC1 (stereo unspecified),"inconclusive [inhibitor, single point]",
COCCn1c(C)cc(O)c(C(c2ccc(C)cc2)N2CCCCC2)c1=O (stereo unspecified),inactive,
CC(=O)N1Cc2ccccc2C(C)CC12CCCCC2 (stereo unspecified),"inconclusive [inhibitor, single point]",
O=C(Nc1nc(-c2ccc(Cl)cc2)cs1)NC1CCCCC1,"inconclusive [inhibitor, single point]",
